Consider 65 molecules from PMC6664820, “Novel natural and synthetic inhibitors of solute carriers SGLT1 and SGLT2” (Pharmacology Research & Perspectives, 2019).

Among all 1,900 compounds or so, about 40 (2%) showed an effect of 50% or more. This is one part of the list.

human SGLT1 (hSGLT1), sequence (P13866 whole entry, looked up): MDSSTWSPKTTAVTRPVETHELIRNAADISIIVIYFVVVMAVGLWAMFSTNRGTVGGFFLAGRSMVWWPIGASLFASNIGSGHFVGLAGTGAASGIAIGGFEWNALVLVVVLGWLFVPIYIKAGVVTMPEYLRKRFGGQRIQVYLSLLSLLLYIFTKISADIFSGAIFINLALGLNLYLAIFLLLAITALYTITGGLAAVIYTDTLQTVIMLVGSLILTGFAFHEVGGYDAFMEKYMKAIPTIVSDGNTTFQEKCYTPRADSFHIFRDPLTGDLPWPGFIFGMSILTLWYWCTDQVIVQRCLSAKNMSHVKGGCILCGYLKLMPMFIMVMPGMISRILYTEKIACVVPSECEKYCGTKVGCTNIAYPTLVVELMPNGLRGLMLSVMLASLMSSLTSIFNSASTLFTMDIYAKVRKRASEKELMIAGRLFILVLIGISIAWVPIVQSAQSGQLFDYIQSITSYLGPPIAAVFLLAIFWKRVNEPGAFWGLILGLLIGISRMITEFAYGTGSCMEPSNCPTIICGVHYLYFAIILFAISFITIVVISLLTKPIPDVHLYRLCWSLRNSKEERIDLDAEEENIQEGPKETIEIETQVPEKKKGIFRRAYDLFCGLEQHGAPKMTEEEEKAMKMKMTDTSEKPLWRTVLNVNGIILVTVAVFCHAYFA

The target of this assay is human SGLT1 (hSGLT1) (human, UniProt P13866). Put plainly: primary screen, percent of control activity; higher = less effect of the substance. Set-up: single well. Conditions: 50 µM. In a few lines:
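Single-point screen at 50 µmol/L in CHO-hSGLT1 cells, with 160 µmol/L 1-NBD-glucose in glucose-free DMEM for 90 min at 37°C. Fluorescence from isopropanol extracts was calibrated, and CHO wild-type uptake was subtracted. Data are percent of uptake without compound.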
As to `CCCCCCCCCCCC[C@H](C(=O)O)[C@@H](C)C(=O)O`, the “NORMALIZED SGLT1 ACTIVITY (%)” value came out at 154%.

In the case of `CCCc1cc(C(N)=S)ccn1`, the “NORMALIZED SGLT1 ACTIVITY (%)” value is 139%. To `Cc1cccc(Nc2ccccc2C(=O)O)c1C` belongs 295%.

For the molecule `C=CCC1(C(C)CCC)C(=O)N=C([S-])NC1=O.[Na+]` (centres unmarked), the “NORMALIZED SGLT1 ACTIVITY (%)” value is 94%. The value for `C=CCSCC=C` was 93%. The value for `CC(N)C(=O)OC(C)(C)Cc1ccc(Cl)cc1` (centres unmarked) was 122%; that for `Cl.OC(CCN1CCCC1)(c1ccccc1)C1CCCCC1` (centres unmarked) was 45%; that for `CC(C)(C)NCC(O)c1ccc(O)c(CO)c1` (racemic) was 104%. To `COc1cc2c(cc1-c1coc3c4c(c(OC)cc3c1=O)OC(C)(C)C=C4)OCO2` belongs 94%. Turning to `O=C1CCC(N2C(=O)c3ccccc3C2=O)C(=O)N1` (centres unmarked), the “NORMALIZED SGLT1 ACTIVITY (%)” value was found to be 171%. To `COc1cccc2c1CCC1CC(=O)CC[C@]21C` (some centres unmarked) belongs 137%; to `CCC/C=C1\OC(=O)C2=C1CCC=C2`, 126%.

In the case of `C[C@@H]1C(=O)O[C@H]2[C@H]1CC[C@@]1(C)C=CC(=O)[C@@]3(C)O[C@@]213`, the “NORMALIZED SGLT1 ACTIVITY (%)” value is on record as 96%.

As to `N=c1[nH]c(=O)c2[nH]c(=O)c(=O)[nH]c2[nH]1`, the “NORMALIZED SGLT1 ACTIVITY (%)” value was 125%. The value for `OC[C@@H](O)[C@@H](O[C@@H]1O[C@H](CO)[C@@H](O)[C@H](O)[C@H]1O)[C@H](O)[C@@H](O)CO` was 95%. As to `CN(C)CCC[C@@]1(c2ccc(F)cc2)OCc2cc(C#N)ccc21.O=C(O)C(=O)O`, the “NORMALIZED SGLT1 ACTIVITY (%)” value is 208%.

Take `OC[C@H]1O[C@@](CO)(O[C@H]2O[C@H](CO)[C@@H](O)[C@H](O)[C@H]2O)[C@@H](O[C@H]2O[C@H](CO)[C@@H](O)[C@H](O)[C@H]2O)[C@@H]1O`: the “NORMALIZED SGLT1 ACTIVITY (%)” value is 96%. Turning to `CC(C)(O)[C@@H]1Cc2cc3ccc(=O)oc3cc2O1`, the “NORMALIZED SGLT1 ACTIVITY (%)” value stood at 135%. For `Cl.N/C(=N\C(=O)c1nc(Cl)c(N)nc1N)NCc1ccccc1`, the “NORMALIZED SGLT1 ACTIVITY (%)” value came to 167%. To `CN1CCN(C2=Nc3ccccc3Oc3ccc(Cl)cc32)CC1.O=C(O)CCC(=O)O` belongs 117%; to `CC(C)NCC(O)c1cc(O)cc(O)c1` (centres unmarked), 96%; to `CCC(C)C(=O)O[C@@H]1C[C@@]2(C)[C@H](c3ccoc3)OC(=O)CC23OC2(C)O[C@]14[C@]1(C)[C@@H](CC(=O)OC)C5(C)CC1(O)[C@](O)(C5OC(=O)C1(C)OC1C)[C@@H](OC(C)=O)[C@]34O2` (some centres unmarked), 159%. To `Br.COc1ccc2c(c1)[C@]13CCCC[C@H]1[C@H](C2)N(C)CC3` belongs 64%. The value for `O=C(O)CCCC[C@@H]1SC[C@@H]2NC(=O)N[C@@H]21` was 141%. As for `COc1cc2c(cc1OC)[C@@H]1C(=O)c3ccc4c(c3O[C@@H]1CO2)C=CC(C)(C)O4`, the “NORMALIZED SGLT1 ACTIVITY (%)” value came out at 334%.

For the molecule `CC(=O)OCC(COC(C)=O)OC(C)=O`, the “NORMALIZED SGLT1 ACTIVITY (%)” value came to 98%. To `NC1(C(=O)O)CC1` belongs 130%; to `O=C(O)c1ccccc1C(=O)Nc1ccc(S(=O)(=O)Nc2nccs2)cc1`, 86%; to `OCC(O)Cc1ccc2c(c1)OCO2` (centres unmarked), 104%. The value for `CC(=O)Oc1ccc(O)cc1` was 135%; that for `CC1(C)C(=O)[C@@H]2O[C@@H]2[C@@]2(C)C1CC(=O)[C@]1(C)C2CC[C@@]2(C)[C@H](c3ccoc3)OC(=O)[C@H]3O[C@]321` (some centres unmarked) was 83%; that for `OCCN1C[C@H](O)[C@@H](O)[C@H](O)[C@H]1CO` was 109%.

Regarding `COc1ccc2c(c1)[nH]c1c(C)nccc12`, the “NORMALIZED SGLT1 ACTIVITY (%)” value was 272%.

Consider `O=C(CCCN1CCC(O)(c2ccc(Cl)cc2)CC1)c1ccc(F)cc1`, for which the “NORMALIZED SGLT1 ACTIVITY (%)” value is 88%. To `C[C@]12CCC3C(CC[C@H]4C[C@@H](O)CC[C@]34C)C1CCC2=O` (some centres unmarked) belongs 104%; to `CCn1cc(C(=O)O)c(=O)c2cc(F)c(N3CCNCC3)nc21`, 145%. The value for `O=C1c2c(O)cccc2Cc2cccc(O)c21` was 134%. The value for `CC(C(=O)O)c1ccc(C(=O)c2cccs2)cc1` (centres unmarked) was 228%; that for `CCOC(=O)NNc1nncc2ccccc12.Cl` was 154%. `Cn1c(=O)[nH]c2ncn(C)c2c1=O`: the “NORMALIZED SGLT1 ACTIVITY (%)” value turned out to be 164%.

As to `C=NC(C(=O)NC1C(=O)N2C1SC(C)(C)C2C(=O)[O-])c1ccccc1.[Na+]` (centres unmarked), the “NORMALIZED SGLT1 ACTIVITY (%)” value was found to be 174%. Take `C=CCCCCCCCCCCCC(O)CC(O)CO` (centres unmarked): the “NORMALIZED SGLT1 ACTIVITY (%)” value worked out at 120%. The value for `COc1ccc2c(c1)OC/C(=C/c1ccc(O)c(O)c1)C2=O` was 249%; that for `O=C(O)CCC(=O)c1ccc(-c2ccccc2)cc1` was 305%; that for `COc1cc2cc3c4cc(OC)c(OC)cc4cc[n+]3c(C)c2cc1OC.[Cl-]` was 101%. For the molecule `CCCCC(CC)CNC(=N)NC(=N)NCCCCCCNC(=N)NC(=N)NCC(CC)CCCC.Cl.Cl` (centres unmarked), the “NORMALIZED SGLT1 ACTIVITY (%)” value is 36%.

For the molecule `COc1ccc(-c2cc(=O)c3c(OC(C)=O)cc(OC(C)=O)cc3o2)cc1`, the “NORMALIZED SGLT1 ACTIVITY (%)” value stood at 232%. To `CN(C)C(=O)Oc1ccc[n+](C)c1.[Br-]` belongs 105%; to `CC1=C(/C=C/C(C)=C/C=C/C(C)=C/C(=O)O)C(C)(C)CCC1`, 235%; to `C#CCCCCCCCCCCCC(O)CC(O)COC(C)=O` (centres unmarked), 127%. To `CN1C(=O)CCS(=O)(=O)C1c1ccc(Cl)cc1` (centres unmarked) belongs 123%; to `CC(C)NC(=N)NC(=N)Nc1ccc(Cl)cc1.Cl`, 130%. To `COc1cccc2c1CCC1=CC(=O)CC[C@@]12C` belongs 78%. `CC(=O)[C@H]1CCC2C3CCC4=CC(=O)CC[C@]4(C)C3CC[C@@]21C` (some centres unmarked): the “NORMALIZED SGLT1 ACTIVITY (%)” value came out at 38%. To `CC(C)=CCc1c2c(c3occ(-c4ccc(O)c(O)c4)c(=O)c3c1O)C=CC(C)(C)O2` belongs 134%. The value for `CNC(Cc1c[nH]c2ccccc12)C(=O)O` (centres unmarked) was 110%; that for `COc1ccc(OC)c(C(O)CNC(=O)CN)c1.Cl` (centres unmarked) was 104%. The value for `C=C1C2CC[C@@]3(C)[C@H](c4ccoc4)OC(=O)C[C@]13O[C@H]1CC(=O)C(C)(C)C(CC(=O)OC)[C@@]21C` (some centres unmarked) was 71%.

`Nc1ccc(S(=O)(=O)[N-]c2cnc3ccccc3n2)cc1.[Na+]`: the “NORMALIZED SGLT1 ACTIVITY (%)” value worked out at 119%. The value for `Cc1ccc(/C(=C\CN2CCCC2)c2ccccn2)cc1.Cl` was 72%; that for `CC(=O)OCC(CCn1cnc2cnc(N)nc21)COC(C)=O` was 150%.

On to `CCOC(=O)C1=C(O)C(=O)N(Cc2ccccc2)C1`, for which the “NORMALIZED SGLT1 ACTIVITY (%)” value was found to be 211%. To `CC(=O)Nc1cccc(O)c1` belongs 91%. The value for `CC1=CC(=O)C2=C(C)C[C@H](O)[C@@H]3[C@H](OC(=O)[C@H]3C)[C@H]12` was 171%; that for `C=C(C)[C@H]1COc2cc3oc(=O)ccc3cc2O1` was 165%.
